Results on 98 sequences are retold here after paper PMC10668032.

This is one part of the list. At the low end of the ranking the order means little.

The target of the experiment is SIX1 homeodomain (reference allele) (UniProt Q15475). The experiment in a line: universal protein binding microarray. The note with it: Universal all-10-mer PBM (8x60K, AMADID 030236), 300 nM GST-tagged protein, Alexa Fluor 488 anti-GST; buffer, salt, pH and temperature not stated; high values mean tight binding; most listed sequences are background and not binding sites; double strand, one strand shown.
With CGGGTAGC, the binding signal is -0.0556 E-score.
Under ACGCAGCT stands -0.15 E-score; under AGGACCAT, -0.0608 E-score; under CTATAACA, -0.0432 E-score.
Under CGCGATAC stands 0.458 E-score; under CTGCCTCA, -0.126 E-score; under ATAGGGAG, 0.091 E-score.
To CTTCAACC belongs -0.139 E-score.
In the case of ACTGAAAC, the binding signal came out at 0.105 E-score.
Under CTCCTCGC stands -0.0954 E-score; under ACGCTTTA, -0.278 E-score.
Under AGAGTTAC stands -0.0751 E-score; under CAATGCGG, 0.176 E-score; under ACTAATGA, 0.0163 E-score.
For the sequence GCCCATAA, the binding signal is -0.0393 E-score.
To CCACAGGG belongs -0.0393 E-score; to TCCGACCA, 0.0375 E-score; to CCTCGGTA, -0.0538 E-score.
To AGTGACGG belongs 0.00215 E-score; to GATAGGGA, 0.376 E-score.
To ATGTAGTC belongs -0.0974 E-score.
On to CCCAGACG, for which the binding signal is -0.0608 E-score.
With GCACCTCA, the binding signal is -0.0942 E-score.
To GCGGGGCA belongs 0.0307 E-score.
To CATCTACC belongs 0.156 E-score.
To TACTGCCA belongs 0.0236 E-score; to CCAAGGCA, -0.00904 E-score.
As to AACCTCTC, the binding signal is -0.146 E-score.
For the sequence CTGGAATA, the binding signal is 0.0952 E-score.
To CGGATTAG belongs 0.251 E-score.
Under CTAGGGTA stands 0.15 E-score; under CGCGTTAA, -0.0847 E-score; under GGCAGTGA, -0.0157 E-score.
For the sequence CCCTCTCG, the binding signal stood at 0.0429 E-score.
Under GGCTAACA stands 0.00317 E-score.
Under ATCACCCC stands 0.302 E-score; under ACGTACGG, 0.00246 E-score.
Under GATTCAGC stands -0.178 E-score.
Regarding CCACAGAG, the binding signal was -0.0746 E-score.
Turning to ATGTGTAA, the binding signal was found to be 0.0676 E-score.
To TAGGTTCA belongs 0.0674 E-score; to ACAACTGC, -0.252 E-score.
To GGTCTGTA belongs 0.0389 E-score; to GTAGGTCA, -0.264 E-score; to GCTACGCC, -0.031 E-score.
Under CCGTAGAC stands -0.033 E-score; under ATGCAAGA, 0.0291 E-score.
With CAATTTCG, the binding signal was -0.259 E-score.
As to ACCATGCT, the binding signal stood at 0.0723 E-score.
Under CCGAGCGC stands -0.0976 E-score; under CTGGTAAG, -0.0233 E-score; under AGCATTCA, -0.118 E-score.
For the sequence AACCTCGA, the binding signal was -0.154 E-score.
To CCGTTTAC belongs -0.0558 E-score.
Under CGAGGTAA stands -0.216 E-score; under AATCCTGT, -0.0105 E-score; under AACGCCCT, -0.308 E-score.
To TGCTCACA belongs -0.133 E-score; to GCCTCCTA, -0.135 E-score.
In the case of ACAGAAAA, the binding signal is -0.242 E-score.
Under GGGAGCAA stands -0.161 E-score.
Take CCAGCGAA: the binding signal was -0.12 E-score.
Regarding CCCAATAG, the binding signal was -0.0401 E-score.
Under GGATAAGA stands 0.137 E-score.
To AGTGCAGG belongs -0.0994 E-score.
Consider AAGTCGTA, for which the binding signal is -0.15 E-score.
CACCTGCA: the binding signal is -0.00053 E-score.
On to CCAGTCAG, for which the binding signal was -0.171 E-score.
To CATAAGGC belongs -0.13 E-score; to ACGCCCAC, -0.143 E-score; to ATGTGACA, -0.0198 E-score.
As for AACTAACT, the binding signal is -0.153 E-score.
To TAAAAGAA belongs -0.183 E-score; to ACTGCCTC, -0.113 E-score; to ACTTTGAG, -0.0364 E-score.
On to CGAATCAA, for which the binding signal stood at 0.005 E-score.
Under CCAAGCCC stands -0.0645 E-score.
In the case of GGTGACTA, the binding signal is -0.0832 E-score.
To GAACCAAC belongs 0.0188 E-score; to GAGTGACA, 0.0422 E-score; to CGAGGCTA, -0.0173 E-score.
As for AGGCCTAC, the binding signal is -0.172 E-score.
As for GAACTCTA, the binding signal is -0.118 E-score.
Under AAGTACCA stands -0.0495 E-score; under AATCAGTA, -0.0148 E-score.
Under CGAAGAGA stands 0.0554 E-score; under AGTCCCAT, -0.259 E-score; under AACATGGG, 0.0557 E-score.
To ACTTGGCC belongs -0.147 E-score; to GTTTAATA, 0.0759 E-score; to AGCGTGGA, -0.198 E-score.
Turning to AAGCATAC, the binding signal was 0.00651 E-score.
Under ACCACCCA stands 0.0159 E-score; under ACGTAGAG, -0.0563 E-score; under AGTAGTTC, -0.136 E-score.
Turning to TCCGTGAA, the binding signal was -0.0494 E-score.
To ACTCATGG belongs 0.0152 E-score; to ACGCGGGG, 0.0464 E-score.
